# Structures can show the parent of a compound that is named as a salt. ± gives the standard deviation of the averaged measurements. The full ranking holds about 1,900 compounds; the median of “normalised cell viability (NPI; 0 = phenylarsine oxide control, 1 = DMSO control)” is about 1, and the lowest 2% start at about 0.039. The list shows a part of the results.
# System: NCI-H1944
# Experiment: normalised cell viability (NPI; 0 = phenylarsine oxide control, 1 = DMSO control) (fraction of DMSO control); NCI-H1944 is a non-small cell lung cancer line; higher = more viable cells (less compound toxicity)
# Settings: 6 days
# [1] = glucocorticoid arm: hydrocortisone 2.75 uM co-treatment, compound 1 µM
# [2] = glucocorticoid arm: hydrocortisone 2.75 uM co-treatment, compound 5 µM
# [3] = glucocorticoid arm: hydrocortisone 2.75 uM pre-treated 2 days and continued, compound 1 µM
# [4] = glucocorticoid arm: hydrocortisone 2.75 uM pre-treated 2 days and continued, compound 5 µM
# [5] = glucocorticoid arm: vehicle, compound 1 µM
# [6] = glucocorticoid arm: vehicle, compound 5 µM
# 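Further: CTB read-out in 384-well plates, mean of triplicate wells, normalised per plate against 1 µM phenylarsine oxide and 0.1% DMSO, compounds added 24 h after seeding.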
compound,measurement,setting,value
CCCCCCCCCC[Si](C)(C)CCC(=O)NC(Cc1ccc(C)cc1)c1ccccc1 (stereo not given) [Sandoz 58-035],normalised cell viability,[1],0.992 ± 0.016
same,normalised cell viability,[2],0.9963 ± 0.0055
same,normalised cell viability,[3],0.985 ± 0.0056
same,normalised cell viability,[4],0.982 ± 0.0014
same,normalised cell viability,[5],0.9753 ± 0.0038
same,normalised cell viability,[6],0.9807 ± 0.0021
COC(=O)N[C@H](C(=O)N[C@@H](Cc1ccccc1)[C@@H](O)CN(Cc1ccc(-c2ccccn2)cc1)NC(=O)[C@@H](NC(=O)OC)C(C)(C)C)C(C)(C)C [Atazanavir sulfate],normalised cell viability,[1],0.997 ± 0.014
same,normalised cell viability,[2],1.03
same,normalised cell viability,[3],1.013 ± 0.0058
same,normalised cell viability,[4],1.02
same,normalised cell viability,[5],1
same,normalised cell viability,[6],1.017 ± 0.0058
CCCCNc1cc(C(=O)O)cc(S(N)(=O)=O)c1Oc1ccccc1 [Bumetanide],normalised cell viability,[1],1.01 ± 0.011
same,normalised cell viability,[2],1.02 ± 0.01
same,normalised cell viability,[3],1.01 ± 0.011
same,normalised cell viability,[4],0.992 ± 0.026
same,normalised cell viability,[5],0.9813 ± 0.0011
same,normalised cell viability,[6],0.9923 ± 0.004
OC(CCN1CCCCC1)(c1ccccc1)C1CCCCC1 (racemic) [DL-Trihexyphenidyl hydrochloride],normalised cell viability,[1],0.99967 ± 0.00058
same,normalised cell viability,[2],0.998 ± 0.013
same,normalised cell viability,[3],1.03 ± 0.021
same,normalised cell viability,[4],1.02 ± 0.011
same,normalised cell viability,[5],0.995 ± 0.007
same,normalised cell viability,[6],1.001 ± 0.0085
CCCCCC(O)c1cccc(OCc2ccc3ccccc3n2)c1 (stereo not given),normalised cell viability,[1],0.999 ± 0.001
same,normalised cell viability,[2],1.02 ± 0.021
same,normalised cell viability,[3],1.02 ± 0.023
same,normalised cell viability,[4],1.002 ± 0.0067
same,normalised cell viability,[5],0.981 ± 0.0069
same,normalised cell viability,[6],0.9947 ± 0.004
COc1cc2ncnc(Nc3cccc(Cl)c3)c2cc1OC [Tyrphostin AG 1478],normalised cell viability,[1],0.965 ± 0.007
same,normalised cell viability,[2],0.836 ± 0.026
same,normalised cell viability,[3],1.01 ± 0.01
same,normalised cell viability,[4],0.968 ± 0.025
same,normalised cell viability,[5],1.01
same,normalised cell viability,[6],0.903 ± 0.022
COc1cc2ncnc(Nc3cccc(Cl)c3)c2cc1OC [AG-1478 (Tyrphostin AG-1478)],normalised cell viability,[1],0.944 ± 0.016
same,normalised cell viability,[2],0.866 ± 0.046
same,normalised cell viability,[3],0.9563 ± 0.004
same,normalised cell viability,[4],0.919 ± 0.015
same,normalised cell viability,[5],0.906 ± 0.019
same,normalised cell viability,[6],0.855 ± 0.036
CCOC(=O)c1cnc2c(cnn2CC)c1NN=C(C)C [Etazolate hydrochloride],normalised cell viability,[1],1.003 ± 0.0061
same,normalised cell viability,[2],0.996 ± 0.012
same,normalised cell viability,[3],1.001 ± 0.0083
same,normalised cell viability,[4],1.003 ± 0.0064
same,normalised cell viability,[5],1.01
same,normalised cell viability,[6],1.003 ± 0.0058
C[C@]12CCC3=C4CCC(=O)C=C4CC[C@H]3[C@@H]1CC[C@@]2(O)CC#N [Dienogest],normalised cell viability,[1],1.01 ± 0.016
same,normalised cell viability,[2],1.06 ± 0.015
same,normalised cell viability,[3],1.027 ± 0.0058
same,normalised cell viability,[4],1.06 ± 0.015
same,normalised cell viability,[5],1.02 ± 0.015
same,normalised cell viability,[6],1.01 ± 0.01
O=C(O)c1cc2cc(Cc3cccnc3)ccc2o1 [Furegrelate sodium salt],normalised cell viability,[1],1.003 ± 0.0058
same,normalised cell viability,[2],0.9777 ± 0.0096
same,normalised cell viability,[3],0.996 ± 0.012
same,normalised cell viability,[4],0.976 ± 0.03
same,normalised cell viability,[5],0.999 ± 0.011
same,normalised cell viability,[6],0.989 ± 0.0072
NC(=O)c1ccc(I)c([N+](=O)[O-])c1 [Iniparib (BSI-201)],normalised cell viability,[1],0.9923 ± 0.0093
same,normalised cell viability,[2],1.04 ± 0.015
same,normalised cell viability,[3],0.99 ± 0.013
same,normalised cell viability,[4],1.01 ± 0.016
same,normalised cell viability,[5],0.999 ± 0.011
same,normalised cell viability,[6],0.9953 ± 0.0046
COc1ccc(C2=N[C@@H](c3ccc(Cl)cc3)[C@@H](c3ccc(Cl)cc3)N2C(=O)N2CCNC(=O)C2)c(OC(C)C)c1 [Nutlin-3],normalised cell viability,[1],0.992 ± 0.011
same,normalised cell viability,[2],0.929 ± 0.02
same,normalised cell viability,[3],0.996 ± 0.016
same,normalised cell viability,[4],1.01 ± 0.016
same,normalised cell viability,[5],0.9923 ± 0.0075
same,normalised cell viability,[6],0.747 ± 0.037
"c1ccc(C2CN3CCSC3=N2)cc1 (single isomer, unassigned; (-)) [(-)-Tetramisole hydrochloride]",normalised cell viability,[1],1.017 ± 0.0058
same,normalised cell viability,[2],1.01 ± 0.015
same,normalised cell viability,[3],1.02 ± 0.015
same,normalised cell viability,[4],1.02 ± 0.015
same,normalised cell viability,[5],1.02
same,normalised cell viability,[6],1.02 ± 0.015
"c1ccc(C2CN3CCSC3=N2)cc1 (single isomer, unassigned; (-)) [Tetramisole hydrochloride]",normalised cell viability,[1],1.01 ± 0.015
same,normalised cell viability,[2],1 ± 0.028
same,normalised cell viability,[3],1 ± 0.033
same,normalised cell viability,[4],1.017 ± 0.0058
same,normalised cell viability,[5],1.013 ± 0.0058
same,normalised cell viability,[6],1.017 ± 0.0058
N#C/C(=C\c1ccc(O)c(O)c1)C(=O)NCCCc1ccccc1 [Tyrphostin AG 555],normalised cell viability,[1],1 ± 0.014
same,normalised cell viability,[2],0.996 ± 0.013
same,normalised cell viability,[3],0.934 ± 0.14
same,normalised cell viability,[4],0.985 ± 0.016
same,normalised cell viability,[5],1.01 ± 0.01
same,normalised cell viability,[6],1.017 ± 0.0058
CCCNC(=O)Nc1ccc(Oc2ncnc3cc(OC)c(OC)cc23)cc1Cl,normalised cell viability,[1],0.991 ± 0.012
same,normalised cell viability,[2],1.02 ± 0.021
same,normalised cell viability,[3],1.01 ± 0.013
same,normalised cell viability,[4],1.02 ± 0.032
same,normalised cell viability,[5],1.002 ± 0.0072
same,normalised cell viability,[6],1.007 ± 0.0058
"O=C(O)c1cc(=O)c2c(Cl)cc(Cl)cc2[nH]1 [5,7-Dichlorokynurenic acid]",normalised cell viability,[1],1.001 ± 0.009
same,normalised cell viability,[2],0.975 ± 0.019
same,normalised cell viability,[3],0.999 ± 0.011
same,normalised cell viability,[4],0.9823 ± 0.0015
same,normalised cell viability,[5],1.001 ± 0.0081
same,normalised cell viability,[6],1.003 ± 0.0058
NC(=O)c1ccc(-c2nc(-c3ccccn3)c(-c3ccc4c(c3)OCO4)[nH]2)cc1,normalised cell viability,[1],1.006 ± 0.0075
same,normalised cell viability,[2],1.02 ± 0.01
same,normalised cell viability,[3],1.007 ± 0.0058
same,normalised cell viability,[4],1.013 ± 0.0058
same,normalised cell viability,[5],1.003 ± 0.0061
same,normalised cell viability,[6],0.997 ± 0.013
Cc1cn(-c2cc(NC(=O)c3ccc(C)c(Nc4nccc(-c5cccnc5)n4)c3)cc(C(F)(F)F)c2)cn1 [Nilotinib],normalised cell viability,[1],1.05 ± 0.035
same,normalised cell viability,[2],1.093 ± 0.0058
same,normalised cell viability,[3],1.04 ± 0.01
same,normalised cell viability,[4],1.04 ± 0.01
same,normalised cell viability,[5],1.013 ± 0.0058
same,normalised cell viability,[6],1.03 ± 0.01
Cc1cn(-c2cc(NC(=O)c3ccc(C)c(Nc4nccc(-c5cccnc5)n4)c3)cc(C(F)(F)F)c2)cn1 [Nilotinib (AMN-107)],normalised cell viability,[1],1.02 ± 0.01
same,normalised cell viability,[2],1.05 ± 0.01
same,normalised cell viability,[3],1.03 ± 0.01
same,normalised cell viability,[4],1.05 ± 0.023
same,normalised cell viability,[5],1.017 ± 0.0058
same,normalised cell viability,[6],1.017 ± 0.0058
CC(C)(C)c1ccc(S(=O)(=O)/C=C/C#N)cc1,normalised cell viability,[1],0.9913 ± 0.008
same,normalised cell viability,[2],0.41 ± 0.055
same,normalised cell viability,[3],0.9847 ± 0.007
same,normalised cell viability,[4],0.9755 ± 0.0021
same,normalised cell viability,[5],0.972 ± 0.0092
same,normalised cell viability,[6],0.00936 ± 0.004
O=[N+]([O-])c1ccc(CSc2ncnc3c2ncn3[C@@H]2O[C@H](CO)[C@@H](O)[C@H]2O)cc1 [S-(4-Nitrobenzyl)-6-thioinosine],normalised cell viability,[1],0.9813 ± 0.0047
same,normalised cell viability,[2],0.968 ± 0.027
same,normalised cell viability,[3],0.987 ± 0.018
same,normalised cell viability,[4],0.996 ± 0.059
same,normalised cell viability,[5],0.9973 ± 0.0046
same,normalised cell viability,[6],0.9917 ± 0.0097
"O=Nc1ccc2oc(=O)ccc2c1 [6-Nitroso-1,2-benzopyrone]",normalised cell viability,[1],1.02 ± 0.01
same,normalised cell viability,[2],1.02 ± 0.015
same,normalised cell viability,[3],1.027 ± 0.0058
same,normalised cell viability,[4],0.857 ± 0.29
same,normalised cell viability,[5],1.013 ± 0.0058
same,normalised cell viability,[6],1.02 ± 0.01
CC(=O)c1c(C)c2cnc(Nc3ccc(N4CCNCC4)cn3)nc2n(C2CCCC2)c1=O,normalised cell viability,[1],0.8953 ± 0.0011
same,normalised cell viability,[2],0.765 ± 0.022
same,normalised cell viability,[3],0.9397 ± 0.0075
same,normalised cell viability,[4],0.895 ± 0.014
same,normalised cell viability,[5],0.9427 ± 0.004
same,normalised cell viability,[6],0.798 ± 0.029
CC(C)OC(=O)C(C)(C)Oc1ccc(C(=O)c2ccc(Cl)cc2)cc1 [Fenofibrate],normalised cell viability,[1],1 ± 0.015
same,normalised cell viability,[2],1.005 ± 0.0092
same,normalised cell viability,[3],1.01 ± 0.013
same,normalised cell viability,[4],1.005 ± 0.0092
same,normalised cell viability,[5],0.995 ± 0.0046
same,normalised cell viability,[6],1.001 ± 0.0085

# Source: the supplement of paper PMC8285479
